# Assay results from the supplement of paper PMC8813932.
# Structures can show the parent of a compound that is named as a salt. ± gives the standard deviation of the averaged measurements. The list shows a part of the results. Single values are uncertain, as repeats are few or missing.
# Assays:
# Assay in all cases: log2 surviving fraction relative to plate median (drug vs vehicle, or drug+dl922-947 vs dl922-947 alone); ovarian cancer lines: OVCAR4 is platinum-sensitive while Ov4Cis resists cisplatin and Ov4Carbo carboplatin; higher = more cell survival
# Settings in all cases: compound concentration: 10 uM, 192 h
# OVCAR4 = system: OVCAR4
# Ov4Carbo = system: Ov4Carbo
# Ov4Cis = system: Ov4Cis
# [1] = dl922-947 oncolytic adenovirus co-treatment: MOI 10
# [2] = dl922-947 oncolytic adenovirus co-treatment: none
SMILES,log2 surviving fraction (OVCAR4; [1]),log2 surviving fraction (OVCAR4; [2]),log2 surviving fraction (Ov4Carbo; [1]),log2 surviving fraction (Ov4Carbo; [2]),log2 surviving fraction (Ov4Cis; [1]),log2 surviving fraction (Ov4Cis; [2])
CN1CCN(c2c(F)cc3c(=O)c(C(=O)O)cn(CCF)c3c2F)CC1 [Fleroxacin (Quinodis)],1.01 ± 0.63,0.109 ± 0.0033,-0.00762,0.789,0.432,-0.26
CN(C)CCC(c1ccc(Cl)cc1)c1ccccn1 (configuration not stated) [Chlorpheniramine Maleate],-0.453 ± 0.62,0.211 ± 0.19,-0.141,0.0195,0.232,0.327
N=C(N)NC(=N)NCCc1ccccc1 [Phenformin hydrochloride],-0.874 ± 0.61,-1.29 ± 0.58,0.59,-0.452,-0.215,-0.144
CC(=O)OCC(CCn1cnc2cnc(N)nc21)COC(C)=O [Famciclovir (Famvir)],1.19 ± 0.4,-0.00534 ± 0.43,0.201,0.922,0.609,0.202
N[C@@H](Cc1ccc(O)c(O)c1)C(=O)O [Levodopa (Sinemet)],-0.327 ± 0.41,-0.0447 ± 0.35,0.249,0.69,-0.0414,0.0295
CC(S)C(=O)NCC(=O)O (configuration not stated) [Tiopronin (Thiola)],0.698 ± 0.037,0.746 ± 0.35,0.0275,1.12,0.758,1.12
Cc1cc(NS(=O)(=O)c2ccc(N)cc2)no1 [Sulfamethoxazole],-0.355 ± 0.85,0.657 ± 0.29,-0.334,0.992,0.894,1.92
Cc1nnc(NS(=O)(=O)c2ccc(N)cc2)s1 [Sulfamethizole (Proklar)],0.533 ± 0.42,0.55 ± 0.056,0.998,0.808,-0.313,0.366
COc1ccccc1OCC(O)CO (configuration not stated) [Guaifenesin (Guaiphenesin)],-0.71 ± 0.16,0.233 ± 0.032,0.384,0.453,0.113,-0.51
O=[N+]([O-])c1ccc([As](=O)(O)O)cc1 [Nitarsone],-1.23 ± 0.96,-0.556 ± 0.12,-0.301,-0.185,-0.81,-0.243
CC(C)(C)NC(=O)[C@H]1CC[C@H]2[C@@H]3CC[C@H]4NC(=O)C=C[C@]4(C)[C@H]3CC[C@]12C [Finasteride],0.894 ± 0.12,3.39 ± 2.6,0.634,1.76,0.762,0.242
NC(N)=Nc1nc(CSCC/C(N)=N/S(N)(=O)=O)cs1 [Famotidine (Pepcid)],1.14 ± 0.5,0.62 ± 0.35,-0.616,0.709,0.0154,0.979
Cc1ccc(S(=O)(=O)NC(=O)NN2CC3CCCC3C2)cc1 (configuration not stated) [Gliclazide (Diamicron)],0.295 ± 0.14,0.71 ± 0.091,-0.723,-1.04,0.254,0.41
COc1cc2nc(N3CCN(C(=O)C4COc5ccccc5O4)CC3)nc(N)c2cc1OC (configuration not stated) [Doxazosin mesylate],-0.647 ± 0.88,-1.16 ± 0.29,-1.07,-2.32,-0.73,-1.64
O=P(O)(O)C(O)(Cn1ccnc1)P(=O)(O)O [Zoledronic Acid (Zoledronate)],0.977 ± 0.23,0.569 ± 0.73,1.2,0.982,-0.0296,0.234
Cc1ccc(Nc2nccc(N(C)c3ccc4c(C)n(C)nc4c3)n2)cc1S(N)(=O)=O [Pazopanib HCl],-0.227 ± 0.99,-0.836 ± 0.73,-1.51,-3.43,-0.761,-1.44
CSc1ccc2c(c1)N(CCC1CCCCN1C)c1ccccc1S2 (configuration not stated) [Thioridazine HCl],-7.62 ± 1.1,-4.2 ± 7,-8.11,-10.5,-8.19,-13.2
CN(C)C(=O)Oc1ccc[n+](C)c1 [Pyridostigmine Bromide (Mestinon)],-0.206 ± 0.32,0.133 ± 0.67,0.0516,1.13,-0.0375,-0.465
Cc1nc(-c2ccc(OCC(C)C)c(C#N)c2)sc1C(=O)O [Febuxostat (Uloric)],0.362 ± 0.35,0.249 ± 0.2,0.888,-0.453,0.344,0.057

SMILES,log2 surviving fraction (OVCAR4; [1]),log2 surviving fraction (OVCAR4; [2]),log2 surviving fraction (Ov4Carbo; [1]),log2 surviving fraction (Ov4Carbo; [2]),log2 surviving fraction (Ov4Cis; [1]),log2 surviving fraction (Ov4Cis; [2])
C[C@H]1C[C@H]2[C@@H]3CCC4=CC(=O)C=C[C@]4(C)[C@H]3C(=O)C[C@]2(C)[C@@]1(O)C(=O)CO [Betapar (Meprednisone)],0.346 ± 0.47,-0.0783 ± 0.47,0.231,-0.627,-0.38,0.108
CC(C)OC(=O)OCOP(=O)(CO[C@H](C)Cn1cnc2c(N)ncnc21)OCOC(=O)OC(C)C [Tenofovir Disoproxil Fumarate],-0.243 ± 0.092,-0.851 ± 0.34,0.149,0.157,0.458,-0.687
CC1=C(C(=O)O)N2C(=O)[C@@H](NC(=O)[C@H](N)c3ccccc3)[C@H]2SC1 [Cephalexin (Cefalexin)],0.612 ± 0.15,0.218 ± 0.25,0.322,0.12,0.0773,-0.00182
CCCNCC(O)COc1ccccc1C(=O)CCc1ccccc1 (configuration not stated) [Propafenone (Rytmonorm)],-1.15 ± 0.071,-1.05 ± 0.34,-1.22,-0.765,-2.77,-1.06
COc1ccccc1OCC(O)CN1CCN(CC(=O)Nc2c(C)cccc2C)CC1 (configuration not stated) [Ranolazine dihydrochloride],0.471 ± 0.38,0.00409 ± 1.4,-1.74,2.32,0.389,1.08
CN(C)CCCN1c2ccccc2Sc2ccc(C(F)(F)F)cc21 [Triflupromazine HCl],-1.95 ± 1.3,0.377 ± 0.67,-4.86,-0.248,-2.37,-2.9
C=CCNC(N)=S [Allylthiourea],1.12 ± 0.55,1.21 ± 0.53,0.98,0.0825,1.12,-0.895
O=C1N=C(O)NC1(c1ccccc1)c1ccccc1 [Phenytoin sodium (Dilantin)],-1.05 ± 0.86,-0.268 ± 1,-1.27,0.393,-0.924,-0.23
C[C@@H]1CC[C@H]2[C@@H](C)C(=O)O[C@@H]3O[C@@]4(C)CC[C@@H]1[C@]32OO4 [Artemisinin],0.473 ± 0.14,-0.257 ± 0.26,-0.426,1.11,-0.0973,0.722
N#C[C@@H]1CCCN1C(=O)CNC12CC3CC(CC(O)(C3)C1)C2 [Vildagliptin (LAF-237)],-0.7 ± 0.49,0.792 ± 0.51,0.0765,1.49,-0.082,-0.935
CC(C)OC(=O)C(C(=O)OC(C)C)=C1SC=CS1 [Malotilate],0.479 ± 0.46,3.13 ± 3.9,1.34,0.449,0.253,-0.309
CCN1CCN(c2cc3c(cc2F)c(=O)c(C(=O)O)cn3C2CC2)CC1 [Enrofloxacin],0.174 ± 0.15,1.35 ± 1.5,-1.87,1.22,0.389,-0.784
CCC1=C(C)CN(C(=O)NCCc2ccc(S(=O)(=O)NC(=O)N[C@H]3CC[C@H](C)CC3)cc2)C1=O [Glimepiride],0.198 ± 0.45,0.451 ± 0.63,0.15,0.07,-0.48,0.159
CC(C)(Sc1cc(C(C)(C)C)c(O)c(C(C)(C)C)c1)Sc1cc(C(C)(C)C)c(O)c(C(C)(C)C)c1 [Probucol],0.293 ± 0.32,0.369 ± 0.49,0.595,-0.0481,0.418,0.108
CCC(=O)OCC(=O)[C@@]1(OC(=O)CC)[C@@H](C)C[C@H]2[C@@H]3CCC4=CC(=O)C=C[C@]4(C)[C@@]3(Cl)[C@@H](O)C[C@@]21C [Beclomethasone dipropionate],1.52 ± 0.13,-0.994 ± 0.5,0.0193,-2.63,0.879,-0.327
O=C(O)c1cn(-c2ccc(F)cc2)c2cc(N3CCNCC3)c(F)cc2c1=O [Sarafloxacin HCl],-0.638 ± 0.67,0.745 ± 0.67,-0.976,-0.169,-0.0881,0.524
CCCCCCCCCCCCCCCC[N+](C)(C)CCN(Cc1ccc(OC)cc1)c1ncccn1 [Thonzonium Bromide],-9.98 ± 0.54,-8.25 ± 11,-8.62,-11.9,-9.62,-15.3
CCOC(=O)C1=C(C)NC(C)=C(C(=O)OC)C1c1cccc(Cl)c1Cl (configuration not stated) [Felodipine (Plendil)],-0.78 ± 0.7,-0.823 ± 0.97,-0.947,-3.04,0.364,-0.483
